From patent US8471041B2 (priority 2010, dated 2013)

Text: The ability of the aqueous extraction to effectively remove DNAZ HBr from the ABDNAZ reaction mixture was unexpected because DNAZ HBr was expected to have limited solubility in water. […] The appreciable solubility of DNAZ HBr in water was surprising since a significant portion of DNAZ HBr includes non-polar, carbon and hydrogen moieties, which, conventionally, are not soluble in water. […] Furthermore, DNAZ HBr was not expected to be sufficiently soluble in water to enable aqueous extraction.

SMILES: Br.CC(C)(C)N1CC([N+](=O)[O-])([N+](=O)[O-])C1 [DNAZ HBr]
- solubility in water relative to ABDNAZ (qualitative experiments): significantly more soluble in water than the ABDNAZ
